Results published in article PMC4336329 (PLoS ONE, 2015).
In all, about 310,000 compounds went through this assay and about 14,000 (4.5%) showed an effect of 50% or more. Effects have a minus sign here. The list shows a part of the results. Where a SMILES comes first, the peptide text is derived from it. The star is where a group is joined. Boc = CC(C)(C)OC(=O)*; Bn = c1ccc(C*)cc1

What follows are molecules tested against human ether-à-go-go-related gene (hERG) potassium channel (human, UniProt Q12809) (assay: primary screen, population patch clamp on CHO cells stably expressing hERG).
human ether-à-go-go-related gene (hERG) potassium channel, sequence (Q12809 whole entry, looked up): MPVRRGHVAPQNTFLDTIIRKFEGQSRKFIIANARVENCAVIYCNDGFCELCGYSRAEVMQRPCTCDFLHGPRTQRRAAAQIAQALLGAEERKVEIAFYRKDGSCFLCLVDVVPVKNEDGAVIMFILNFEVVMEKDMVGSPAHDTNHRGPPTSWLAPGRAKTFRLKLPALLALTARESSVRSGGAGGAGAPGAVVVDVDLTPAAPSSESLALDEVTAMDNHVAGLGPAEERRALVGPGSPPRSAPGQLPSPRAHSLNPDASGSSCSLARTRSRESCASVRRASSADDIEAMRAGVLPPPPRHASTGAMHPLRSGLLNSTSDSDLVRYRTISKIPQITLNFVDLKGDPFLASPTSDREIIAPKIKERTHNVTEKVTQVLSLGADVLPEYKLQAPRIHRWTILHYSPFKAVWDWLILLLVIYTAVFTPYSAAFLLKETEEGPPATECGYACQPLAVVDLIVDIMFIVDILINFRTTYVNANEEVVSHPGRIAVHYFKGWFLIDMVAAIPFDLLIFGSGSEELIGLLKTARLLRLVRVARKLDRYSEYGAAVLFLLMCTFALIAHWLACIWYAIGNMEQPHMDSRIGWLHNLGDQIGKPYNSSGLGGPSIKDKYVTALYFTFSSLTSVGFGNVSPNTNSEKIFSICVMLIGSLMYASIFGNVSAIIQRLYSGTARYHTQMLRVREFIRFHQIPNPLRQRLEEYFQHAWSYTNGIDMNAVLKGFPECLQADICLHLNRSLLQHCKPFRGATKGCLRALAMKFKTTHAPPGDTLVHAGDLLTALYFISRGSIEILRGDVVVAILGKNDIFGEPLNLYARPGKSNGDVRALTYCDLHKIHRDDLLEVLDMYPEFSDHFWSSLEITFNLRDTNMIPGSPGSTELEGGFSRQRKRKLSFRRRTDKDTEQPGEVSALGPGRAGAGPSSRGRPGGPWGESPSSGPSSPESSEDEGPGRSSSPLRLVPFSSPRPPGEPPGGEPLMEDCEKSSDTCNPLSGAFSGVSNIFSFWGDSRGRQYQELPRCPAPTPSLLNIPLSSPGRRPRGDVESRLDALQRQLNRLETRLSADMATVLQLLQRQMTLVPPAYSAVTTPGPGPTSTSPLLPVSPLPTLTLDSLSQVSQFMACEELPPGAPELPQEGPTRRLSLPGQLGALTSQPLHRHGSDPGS
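Also: peak tail current of the secondary pulse compared with the same well before compound.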

SMILES | hERG current change (%, negative = inhibition) at 10uM [%]
COc1ccccc1CC(=O)NCCCc1ccccc1 | 1.29
CN1C(=O)C(O)(CC(=O)c2ccccn2)c2cc(Br)ccc21 (stereo not drawn) | 2.31
CN(C(=O)c1cccc(C(F)(F)F)c1)C1CCCc2ccccc21 (stereo not drawn) | -26.9
Cc1cccc(C)c1-n1nnnc1C(C)(C)N1CCN(N=O)CC1 | 14.7
Cc1nnc2ccc(-c3ccc(NS(=O)(=O)c4ccccc4[N+](=O)[O-])cc3)nn12 | 0.245
COc1ccc(-n2c(SCC(=O)Nc3ccccc3OC)nc(O)cc2=O)cc1 | 16
O=C(OCc1ccccc1)/C(=C/c1ccccc1Cl)NC(=O)c1ccco1 | 2.13
Cc1onc(-c2ccccc2)c1CNC(=O)Nc1ccc(F)cc1F | 0.557
CCOC(=O)CN1C(=O)C(Sc2n[nH]c(-c3ccccc3)n2)CCc2ccccc21 (stereo not drawn) | -19.9
C#CCOCCOCCOCCNc1nc(N2CCN(C(=O)[C@H]([C@@H](C)CC)n3cc(CCCC[NH3+])nn3)CC2)nc(N2CCN(C(=O)[C@H](CCCC[NH3+])n3cc(CCCC)nn3)CC2)n1.[Cl-] | 8.1
O=S(=O)(c1cnc[nH]1)N1CCN(c2ccccc2)CC1 | 14
CCN(CC)C(=O)COc1ccc2c3c(c(=O)oc2c1C)CCCC3 | 1.54
CSCC[C@H](NC(=O)[C@@H]1Cc2ccccc2CN1)C(=O)Nc1ccc2c(c1)OCCO2 | -65.5
CCOC(=O)C1=C(N)OC2=C(C(=O)CC(C)(C)C2)C1c1cc(CSc2nnnn2C)cs1 (stereo not drawn) | -29.7
COc1ccc(C2(c3ccc(OC)cc3)NC(=O)N(Cn3nnc4ccccc4c3=O)C2=O)cc1 | -39.7
CC(=O)c1cccc(NC(=O)c2sc3nc4n(c(=O)c3c2C)CCCC4)c1 | 4.65
CN(c1ccc(OCC(=O)O)cc1)S(=O)(=O)c1ccc2ccccc2c1 | 16.1
COCCNC(=O)CSc1nc2cc3c(cc2c(=O)n1CCCC(=O)NCc1ccc(OC)cc1)OCO3 | -4.38
COc1cccc2sc(N(CCN(C)C)C(=O)c3ccc4c(c3)CCCC4)nc12.Cl | -66.7
O=C(COC(=O)c1ccc(O)cc1)NCCC1=CCCCC1 | -8.6
CN1C(=O)c2cccc(NCCCN3C(=O)c4ccccc4C3=O)c2C1=O | 5.16
CCOC(=O)CC1(C)OCC(C[N+]2(C)CCCCC2)O1.[I-] (stereo not drawn) | -16.5

SMILES | hERG current change (%, negative = inhibition) at 10uM [%]
C=C(C)c1cccc(C(C)(C)NC(=O)N2CCN(C)CC2)c1 | 11.1
CCn1cc(C(=O)O)c(=O)c2cc(F)c(N3CCN(S(=O)(=O)c4ccc(NC(=O)OC)cc4)CC3)cc21 | 21.8
O=C1NC(=O)C2(CCc3ccccc32)N1 (stereo not drawn) | 5.19
CCC(=O)Nc1cccc(C2=NOC3(C2)C[C@@H](C(N)=O)N(C(=O)CC)C3)c1 (stereo partly drawn) | 15.2
CC(=O)Oc1ccc(/C=C2/CCc3ccccc3C2=O)cc1 | 3.78
CC(=O)c1nc2ccccc2n1Cc1ccccc1 | -2.37
O=C(NCCN1CCOCC1)N1c2ccccc2Sc2ccccc21 | 6.51
COc1ccccc1N1CCN(S(=O)(=O)c2ccc(-c3cnc(C4CC4)o3)cc2)CC1 | 6.99
Cc1cc(=O)n2nc(N3CCCC(C(=O)N4CCN(c5ccccc5)CC4)C3)sc2n1 (stereo not drawn) | -53.5
CCCCC12CN3CC(C)(CN(C1)C31C(=O)N(C)c3ccc(C)cc31)C2=O (stereo not drawn) | -3.75
O=C(CSc1nnnn1-c1ccccc1)Nc1ccc(N2CCOCC2)cc1 | -5.75
COc1cc(CCC(=O)OCC(=O)Nc2nc(C)c(Cl)cc2Cl)cc(OC)c1OC | -16.1
Brc1ccc(CN2CCCCCC2)cc1 | -30.3
O=C(NNC(=O)c1ccc(Br)s1)c1csc(N2CCOCC2)n1 | 7.54
CCC(C)c1ccccc1N1CC(C(=O)Nc2ccc(S(=O)(=O)N3CCOCC3)cc2)CC1=O (stereo not drawn) | -9.78
CCCN1C(=O)c2ccc(C(=O)Nc3nccs3)cc2C1=O | -13.6
Cl.c1coc(CNc2nc(N3CCCCC3)nc3ccccc23)c1 | -77.5
CCOc1cccc(C(=O)Nc2cccc(NC(=O)c3ccco3)c2)c1 | -37.8
COc1nc(-c2ccccc2)ccc1-c1noc(-c2cccnc2)n1 | 5.15
Cc1ccc(Cl)c2c1NC(=O)C2(O)CC(=O)c1ccc(Br)cc1 (stereo not drawn) | -5.09
COc1ccc(Cl)cc1Nc1nc(NCCO)nc(N2CCCC2)n1 | 8.89
COc1ccc(-c2noc(Cc3ccccc3OC)n2)cc1 | 7.74

SMILES | hERG current change (%, negative = inhibition) at 10uM [%]
O=C(/C(=C/O)N=Nc1ccccc1Cl)c1ccccc1 | 17.5
COC(=O)C1=C(C)N(C)C(C)=C(C(=O)OC)C1c1ccc(F)c(Br)c1 | -2.09
CCOC(=O)N1CCC(=NNC(=O)NC2CCCCC2)CC1 | 10
CCCc1nnc(NC(=O)CCN2C(=O)c3ccccc3C2=O)s1 | 5.37
CCc1ccc(OCCSc2nc3ccccc3n2CC(=O)O)cc1 | 3.37
Cc1cccc(C)c1N1CCN(c2nc(N(C)C)oc(=O)c2C#N)CC1 | -12.2
N#CCN1CCN(CC(=O)c2ccc(Br)cc2)CC1 | 21.5
CCC(=O)NC(=S)Nc1ccccc1F | 17.7
CCNS(=O)(=O)c1ccc(CCC(=O)N2CCc3ccccc3C2)cc1 | -27
COc1cccc(NC(=O)COc2ccc(C(=S)N3CCN(C)CC3)cc2OC)c1 | 1.36
CCOCC(=O)Nc1cc(C(=O)OC)cc(C(=O)OC)c1 | 10.8
COc1cc(OC)cc(C(=O)NNC(=S)Nc2ccc(S(N)(=O)=O)cc2)c1 | 11.2
CCN(CC)CCNc1nc2nonc2nc1NCCN(CC)CC | -0.14
Cl.O=C(CN1CCCC1)NC1C2CC3CC(C2)CC1C3 (stereo not drawn) | -27.4
Cc1ccc(OCCN2CCN(CC(O)Cn3c4ccccc4c4ccccc43)CC2)cc1.O=C(O)C(=O)O (stereo not drawn) | -25.1
Cc1ccc(NC(=O)c2ccc3c(c2)CCN3S(C)(=O)=O)cc1C | -17.1
COC(=O)c1c(NC(=O)c2ccccc2)sc(C(=O)c2ccccc2)c1C | -4.52
Cc1nc(CC(=O)O)c(-c2ccccc2)s1 | 9.42
Cc1cc2c3c(c1C)C1(C(=O)N3C(C)(C)CC2C)C(C#N)=C(N)Oc2cc(O)ccc21 (stereo not drawn) | 8.28
CC(C)CC(NC(=O)C(Cc1ccc(OCc2ccccc2)cc1)NC(=O)OC(C)(C)C)C(N)=O (stereo not drawn) (Boc-Tyr(Bn)-Leu-NH2; configuration not given here) | 1.96
O=C(CCn1cnc2ccccc21)N=Nc1c(O)[nH]c2ccccc12 | -0.803
CCOc1ccc(NC(N)=O)cc1OCC | 6.79

SMILES | hERG current change (%, negative = inhibition) at 10uM [%]
CC(=O)Nc1cccc(C(=O)Nc2cccnc2)c1 | 19.4
CC1(C)C(=O)OC(c2ccc([N+](=O)[O-])cc2)C(C)(C)C1=O (stereo not drawn) | 18.4
COc1ccc(OC)c(S(=O)(=O)NCCCc2ccccc2)c1 | 22.2
CCOc1ccc(C(=O)c2cc3ccc(O)cc3oc2=O)cc1 | 31.8
Cc1ccc(C(=O)NC2CCN(CC(=O)Nc3ccccc3Cl)CC2)cc1 | -45
CC(=O)Nc1ccc(NC(=O)C(F)(F)F)cc1 | 26.7
CC(C)c1nnc(NC(=O)COc2ccccc2[N+](=O)[O-])s1 | -2.04
CCOc1cccc(-c2nnc3sc(-c4ccco4)nn23)c1 | 5.72
CCCCCCNC(=O)c1cc(S(=O)(=O)N2CCc3ccccc32)ccc1F | 14.9
COc1ccccc1N1CCN(C(=O)c2cc3cc(C)ccc3[nH]2)CC1 | 13.9
CCc1noc(C)c1C(=O)Nc1nc(-c2ccc(OC)cc2)cs1 | -6.43
CCNCC(O)c1cccc(O)c1 (stereo not drawn) | 20.8
OCc1nc2ccccc2n1CC(O)Cn1ccc2ccccc21 (stereo not drawn) | 1.93
COc1cc(/C=N/NC(=S)NCCN2CCOCC2)cc(OC)c1OC | -6.67
Cc1ccc(-c2nnn(CC(=O)N(Cc3ccc(F)cc3)C(C(=O)NC3CCCC3)c3ccncc3)n2)o1 (stereo not drawn) | -12.4
CCOc1cc(/C=C2\C(=O)N(Cc3ccco3)C(C)=C2C(=O)OC)ccc1O | -28.9
COc1cc(C2NC(C(=O)O)Cc3c2[nH]c2ccccc32)cc(OC)c1OC (stereo not drawn) | 11.4
CCc1ccc(CN2CCC(Oc3ccc(C(=O)N4CCCCC4)cc3)CC2)cc1 | -78.4
COc1cccc(/C=N/N2CCN(c3ccncc3S(=O)(=O)N3CCCCC3)CC2)c1 | -9.67
CC(=O)c1c(OC(=O)c2ccco2)c2ccccc2n1C | 1.14
COC(=O)C1=C(c2ccc(S(C)(=O)=O)cc2)C[C@@H]2CC[C@H]1N2C(=O)NCCCOC(C)C | 12.9
